Source: the RNAGym collection of RNA variant scans (doi:10.7554/elife.90254)
Read counts are not given, so values of variants with three or more changes are uncertain.

B1: LINE1-full (parent)
chain: UACGUAGGUGGUUUUCCCCUGAUAGUGCUAAGGGGGCCUGGAAGUUUGGACUGGGCAGAGCUCAACACAGCGUGGCAAAGUGGCUGUGGCUAGACUGCCUCUCUGGAUUCCUCGUCACUCAGCAGGGCAUCUCUGAGAGAAAUGCC

Variants of: B1
Assay: self-cleavage, relative activity (ratio to wild type); higher = more cleavage; in vitro, sequencing; the parent is a self-cleaving ribozyme

Variant | self-cleavage
UACGUAGGUGGUCUUCCCCCGAUAGUGCUAAGGGGGCCUGGAAGUUUGAACUGGGCAGAGCUCAACACAGCGUGGCGAAGUGGCUGUGGCUAGACUGCCUCUCUGGAUUCCUCGACACUCAGCAGGGCAUCUCUGAGAGAAAUGCC [U13C U20C G49A A77G U115A] | 2.24
UACGUAGGUGGUUUUCCCCUGAUAGUGCUUAGGGGGCCUGGAAGUUUGGACUGGGCAGAGCUCAACACAGCGUGGCUAAGUGGCUGUGGCUAGACUGCCUCUCUGGGUUCCUCGUCACUCAGCAGGGCAUCUCUGAGAGAAAUGCC [A30U A77U A107G] | 0.88
UACGUAGGUGGUUUUCCCCUGAUAGUGCUAAGGGGGCCUGGAGGUUUGAACUGGGCAGAGCUCAACUCAGCGUGGCAAAGUGGCUGUGGCUAGACUGCCUCUCUGGAUUCCUCCUCACUCAGCAGGGCAUCUCUGAGAGAAAUGCC [A43G G49A A67U G114C] | 0.07
UACGUAGGUGGUUUUCCCCUGAUAGAGCUAAGGGGGCCUGGAAGUUUGGACUGGGCUGAGCUCAACACAGCGUGGCAAAGUGGCUGUGGCUAGACUGCCCCUCUGGAUUCCUCGUCACUCAGCAGGGCAUCUCUGAGAGAAAUGCC [U26A A57U U100C] | 0.21
UACGUAGGUGGUCUUCCCCUGAUGGUGCUAAGGGGGCCUGGAAGUUUGGACUGGGCAGAGCUCAACACAGCGUGGCAUAGUGGCUGUGGCUAGACUGCCUCUCUGGAUUCCUCGUCACUCAGCAGGGCAUCUCUGAGAGAAAUGCC [U13C A24G A78U] | 2.45
UACGUAGGUGGUUUUCCCCUGAUAGCGCUAAGGGGGCCUGGAAGUUUGGACUGGGCGGAGCUCAACACAGCGUGGCAAGGUGGCUGUGGCUAGACUGCCUCUCUGGAUUCCUCGUCACUCAGCAGGGCAUCUCUGAGAGAAAUGCC [U26C A57G A79G] | 0.54
UACGUAGGUGGUUUUCCCCUGAUAGUGCUGAGGGGGCCUGGAAGUUCGGACUGGGCAGAGCUCAGCACAGCGUGGCAAAGUGGCUGUGGCUAGACUGCCCCUCUGGAUUCCUCGUCACUCAGCAAGGCAUCUCUGAGAGAAAUGCC [A30G U47C A65G U100C G125A] | 0
UACGUAGGUGGUUUUCCCCUGAUAGUGCUAAGGGGGCCUGGAAGUAUGGACUGGACAGAGCUCAACACAGCGCGGCAAAGUGGCUGUGGCUAGACUGCCUCUCUGGAUUCCUCGUCACUCAGCAGGGCAUCUCUGAGAGAAAUGCC [U46A G55A U73C] | 0.49
UACGUAGGUGGUUUUCCCCUGAUAGUGCUAAGGGGGCCUGGAAGUUUGGAUUGGGCAGAGCUCAACACAGCGUGGCAGAGUGGCAGCGGCUAGGCUGCCUCUCUGGAUUCCUCGUCACUCAGCAGGGCAUCUCCGAGAGAGAUGCC [C51U A78G U85A U87C A94G U134C A141G] | 0.07
UACGUAGGUGGUUUUCCCCUGAUAGUGCUAAGGGGGCCUGGAAGUUUGGACUGGGCAGAGCCCAACACAGCGAGGCAAAGUGGCUGUGGCUAGACUGCCUCUCUGGAUACCUCGUCACUCAGCAGGGCAUCUCUGAGAGAAAUGCC [U62C U73A U109A] | 0.03
UACGUAGGUGGUUUCCCCCUGAUAGUGCUAAGGGGGCCUGGAAGUUUGGACUGGGCAGAGCUCAACACAGCGUGGCAAAGUGGCUGUGGCCUGACAGCCUCUCUGGAUUCCUCGUCACUCAGCAGGGCAUCUCUGAGAGAAAUGCC [U15C U91C A92U U96A] | 0.06
UACGUAGGUGGUUUCCCCCUGGUAGUGCUAAGGGGGCCUGGAGGUUUGGACUGGGCAGGGCUCAACACAGCGUGGCAAAGUGGCUGUGGCUAGACUGCCUCUCUGGAUUCCUCGUCACUCAGCAGGGCAUCUCUGAGAGAAAUGAC [U15C A22G A43G A59G C145A] | 0
UACGUAGGUGGUUUUCCCCUGAUAGUGCUAAGGGGGCCUGGAAGUUUGGACUGGGCAGAGCUCAACGCAGCGUGGCAAGGUGGCUGUGGCUAGACUGCCUCUCAGGAUUCCUCGUCACUCAGCAGGGCAUCUCUGAGAGAAAUGCC [A67G A79G U104A] | 0
UACGUAGGUGGUUUUCCCCCGAUAGUGCUAAGGGGGCCUGGAAGUUUGGACUGGGCAGAGCUCGACACAGCGUGGCAGAGUGGCUGUGGCUAGACUGCCUCUCUGGAUUCCUCGUCACUCAGCAGGGCAUCUCUGAGAGAAAUGCC [U20C A64G A78G] | 0.23
CACGUAGGUGGUUUUCCCCUGAUAGUGCUGAGGGGGCCUGGAAGUUUGGACUGGGCAGAGCUCAACACAGCGUGGCAAAGUGGCUGUGGCUAGACUGCCUCUCCGGAUUCCUCGUCACUCAGCAGGGCAUCUCUGAGAGAAAUGCC [U1C A30G U104C] | 0.33
UACGUAGGUGGUUUUCCCCUGAUAGUGCUAAGGGGGCCUGGAAGUUUGGACUGGGCAGAGCUCAACACAGCGUGGCAAAGUGGCUGUGGUUAGGCUGCCUCUCUGGAUUCCUCGUCCCUCAGCAGGGGAUCUCUGAGAGAAAUGCC [C90U A94G A117C C128G] | 0.02
UACGUAGGUGGUUUUCCCCUGAUAGUGCUAAGGGGGCCUGGGAGUUUGGACUGGGCAGAGCUCAACACAGCGUGGCAAAGUGGCAGUGGCUAGACUGCCUCUCUGGAUUCCUCGUCACUCAGCAGGGCAUCUCUGAGAGAAGUGCC [A42G U85A A142G] | 0.15
UACGUAGGUGGUUAUCCCCUGAUAGUGCUAAGGGGGCCUGGAAGUUUGGACUGGGCAGAGCUCAACACAGCGUGGCUAAGUGGCUGUGGCUAGGCUGCCUCUCUGGAUUCCUCGUCACUCAGCAGGGCAUCUCUGAGAGAAAUGCC [U14A A77U A94G] | 0.23
UACGUAGGUGGUCUUCCCCUGAUAGAGCUAAGGGGGCCUGGAAGUUUGGACUGGGCAGAGCUUAACACAGCGUGGCAAAGUGGCUGUGGCUAGACUGCCUCUCUGGACUCCUCGCCACUCAGCAGGGCAUCUCAGGGAGAAAUGCC [U13C U26A C63U U108C U115C U134A A136G] | 0.34
UACGUAGGUGGUUUUCCCCUGAUAGUGCUAAGAGGGCCUGGAAGUUCGGACUGGGCAGUGCUCAACACAGCGUGGCAAAGUGGCUGUGGCUAGACUGCCUCUCUGGAUUCCUCGUCACUCAGCGGGGCAUCUCUGAGAGAAAUGCC [G33A U47C A59U A124G] | 0.59

Variant | self-cleavage
UACGUAGGUGGGUUUCCCCUGAUAGUGCUAAGGGGGCCUGGAAGUUUGGAUUGGGCAGAGCUCAACACAGCGUGGCAAAGUGGCUGUGGCUAGACUGCCUCUCAGGAUUCCUCGUCACUCAGCAGGGCAUCUCUGAGAGAAAUGCC [U12G C51U U104A] | 1.58
UACGUAGGUGGUUUUCCCCUGAUAGUGCUAAGAGGGCCUGAAAGUUUGGACUGGGCAGAGCUCUACACAGCGUGGCAAAGUGGCUGUGGCUAGACUGCCUCUCUGGAUUCCUCGUCACUCAGCAGGGCAUCUCUGAGAGAAAUGCC [G33A G41A A64U] | 0.24
UACGUAGGUGGUUGUCCCCUGAUAGUGCUAAGGGGGCCUGGGAGUUUGGACUGGGCAGAGCUCAACGCAGCGUGGCAAAGUGGCUGUGGCUAGACUGCCUCUCUGGAUUCCUCGUCACUCAGCAGGGCAUCUCUGAGAGAAAUGCC [U14G A42G A67G] | 0.44
UACGUAGGUGGUUUUCCCCUGAUUGUGCUAAGGGGGCCUGGAAGGCUGGACUGGGCAGAGCUCAACACAGCGUGGCAAAGUGGCAGUGGCUAGACUGCCUCUCUGGAUUCCUCGUCACUCAGCAGGGCAUCUCUGAGAGAAAUGCC [A24U U45G U46C U85A] | 0.08
UACAUAGGUGGUUUUCCCCUGAUAGUGCUAAGGGGGCCUGGAGGUUUGGACUAGGCAGAGCUCAACACAGCGUGGCAAAGUGGCUGUGGCUAGACUGCCUCUCUGGAUUCCUCGUCACUCAGCAGGGCAUCUCUGAGAGAAAUGCC [G4A A43G G53A] | 0.39
UACGUGGGUGGUUUUCCCCUGAUAGAGCUAAGGGGGCCUGGAAGUUUGGACUGGGCUGAGCUCAACACAGCGUGGCAAAGUGGCUGUGGCUAGACUGCCUCUCUGGAUUCCUCGUCACUCAGCAGGGCAUCUCUGAGAGAAAUGCC [A6G U26A A57U] | 0.3
UACGUAGGUGGUUUUCCCCUGAUAGUGCUAAGGGGGCCUGGAAGUUUGGACUGGGCAGAGCUCAACGCAGCGUGGCAAAGUGGCUGUGGCUAGACUGCCUCUCUGGAUUCCUCGUCACUCAGCAGGGCAUCCCUGAGAGAAAUGCU [A67G U132C C146U] | 0.8
UACGUAAGUGGUUUUCCCUUGAUAGUGCUAAGGGGGCCUGGAUGUUUGGACUGGGCAGAGCUCAACACAGCGUGGCAAAGUGGCUGUGGCUAGACUGCCUCUCUGGAUUCCUCGUCACUCAGCAGGGCAUCUCUGAGAGAAAUGCC [G7A C19U A43U] | 0.59
UACGCAGGUGGUUUUCCCCUGAUAGUGCUAAGGGGGCCUGGAAGUUUGGACUGGGCAGAGCUCAACACAGCGUGGCAAAGUGGCUGUGGCUAGACUGCCUCUCUGGAUACCUCGUCACUCAGCAGGGCAUCUCUGAGAGAAGUGCC [U5C U109A A142G] | 1.78
UACGUAGGUGGUCUUCCCCUGAUAGUGCUAAGGGGGCCUGGAAGUUUGGACUGGGCAGAGCUCAACACAGCGUGGCAAAGUGGCUGUGGCUAGACUGCCUCUCUGGAUUCCUCGCCACUCAGCAGGGCAUCCCUGAGAGAAAUGCC [U13C U115C U132C] | 1.84
UACGUAGGUGGUUUUCCCCUGAUAGUGCUAAGGGGGCCUGGAAGUCCGGACUGGGCAGAGCUCAACACAGCGUGGCAAAGUGGCUGUGGCUAGACAGCCUCUCUGGAUUCCUCGUCACUCAGCAGGGCAUCUCUGAGAGAAAUGCC [U46C U47C U96A] | 0.24
UACGUAGGUGGUUUUCCCCUGAUAGUGCUAAGGGGGCCUGGAGGUUUGGACUGGGCAGAGCUCAACACAGCGUGGCAAAGUGGCUGUGGCUAUACUGCCUCUCUGGAUUCCUCGUCACUCAGCAGGGCAUCUCUGAGAGAGAUGCC [A43G G93U A141G] | 0.07
UACGUAGGUGGCUUUCCCCUGAUAGUGCUUAGGGGGCCUGGAAGUUUGGACUGGGCAGAGCUCAACACAGCGUGGCGAAGUGGCUGUGGCUAGACUGCCUCUCUGGAUUCCUCGUCUCUCAGCAGGGCUUCUCUGAGGGAAAUGCC [U12C A30U A77G A117U A129U A138G] | 2.3
UACGUAGGUGGUUUUCCCCUGAUAGUGCUAAGGGGGCCUGGGAGUUUGGACUGGGCAGAGCUCAACACAGCGUGGCAAAGUGGCUGUGGCUAGACUGCCUCUCUGGAUCCCUCGUCACUCAGCAGGGUAUCUCUGAGAGAAAUGCC [A42G U109C C128U] | 1.26
UACGUAGGUGGUUUUCCCCUGGUAGUGCUAAGGGGGCCUGGAAGUUUGGACUGGGCAGAGCUCAACACAGCGUGGCAAAAUGGCUGUGGCUAGACUGCCUCUCUGGAUUCCUCGUCACCCAGCAGGGCAUCUCUGAGAGAAAUGCC [A22G G80A U119C] | 1.96
UACGUAGGUGGUUUUCCCCUGUUAGUGCUAAGGGGGCCUGGAAGUUUGGACUGGGCAGAGCUCAACACAGCGUGGCAAAGUGGCUGUGGCUAGACUGCCUCUCCGGAUUCCUCGUCACACAGCAGGGCAUCUCUGAGAGAAAUGCC [A22U U104C U119A] | 2.25
UACGCAGGUGGUUUUCCCCUGAUAGUGCUAAGGGGGCCUGGAAGUUUGGACUGGGCAGAGCUCAACACAGCGUGGCAAAGUGGCUGUGGCUAGACUGCCUCUCUGGAUUCCUCGUCACUCAGCAGGGCAUCUCUGGGAGAGAAGCC [U5C A136G A141G U143A] | 1.75
UAUGUAGGUGGUUUUCCCCUGAUAGCGCUAAGGGGGCCUGGAAGUUUGGACUGGGCAGAGCUCAACACAGCGUGGCAAAGUGGCUGUGGCUAGACUGCCUCUCUGGAUUCCACGUCACUCAGCAGGGCAUCUCUGAGAGAAAUGCC [C3U U26C U112A] | 0.76
UACGUAGGUGGUUUUCCCCUGAUAGUGCUAAGGGGGCCUGGAAGUUAGGACUGAGCAGAGCUCAACACAGCGCGGCAAAGUGGCUGUGGCCAGACUGCCUCUCUGGAUUCCUCGUCACUCAGCAGGGCAUCUCUGAGAGAAAUGCC [U47A G54A U73C U91C] | 0.15
